# Results: article PMC4336329 (PLoS ONE, 2015)
# The whole screen tested about 310,000 compounds, of which about 14,000 (4.5%) showed an effect of 50% or more. The effect is printed as a negative number. The list shows a part of the results.
# Molecular target: human ether-à-go-go-related gene (hERG) potassium channel (human, UniProt Q12809)
# Assay: primary screen, population patch clamp on CHO cells stably expressing hERG
# 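Further: peak tail current of the secondary pulse compared with the same well before compound.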
# human ether-à-go-go-related gene (hERG) potassium channel, sequence (Q12809 whole entry, looked up): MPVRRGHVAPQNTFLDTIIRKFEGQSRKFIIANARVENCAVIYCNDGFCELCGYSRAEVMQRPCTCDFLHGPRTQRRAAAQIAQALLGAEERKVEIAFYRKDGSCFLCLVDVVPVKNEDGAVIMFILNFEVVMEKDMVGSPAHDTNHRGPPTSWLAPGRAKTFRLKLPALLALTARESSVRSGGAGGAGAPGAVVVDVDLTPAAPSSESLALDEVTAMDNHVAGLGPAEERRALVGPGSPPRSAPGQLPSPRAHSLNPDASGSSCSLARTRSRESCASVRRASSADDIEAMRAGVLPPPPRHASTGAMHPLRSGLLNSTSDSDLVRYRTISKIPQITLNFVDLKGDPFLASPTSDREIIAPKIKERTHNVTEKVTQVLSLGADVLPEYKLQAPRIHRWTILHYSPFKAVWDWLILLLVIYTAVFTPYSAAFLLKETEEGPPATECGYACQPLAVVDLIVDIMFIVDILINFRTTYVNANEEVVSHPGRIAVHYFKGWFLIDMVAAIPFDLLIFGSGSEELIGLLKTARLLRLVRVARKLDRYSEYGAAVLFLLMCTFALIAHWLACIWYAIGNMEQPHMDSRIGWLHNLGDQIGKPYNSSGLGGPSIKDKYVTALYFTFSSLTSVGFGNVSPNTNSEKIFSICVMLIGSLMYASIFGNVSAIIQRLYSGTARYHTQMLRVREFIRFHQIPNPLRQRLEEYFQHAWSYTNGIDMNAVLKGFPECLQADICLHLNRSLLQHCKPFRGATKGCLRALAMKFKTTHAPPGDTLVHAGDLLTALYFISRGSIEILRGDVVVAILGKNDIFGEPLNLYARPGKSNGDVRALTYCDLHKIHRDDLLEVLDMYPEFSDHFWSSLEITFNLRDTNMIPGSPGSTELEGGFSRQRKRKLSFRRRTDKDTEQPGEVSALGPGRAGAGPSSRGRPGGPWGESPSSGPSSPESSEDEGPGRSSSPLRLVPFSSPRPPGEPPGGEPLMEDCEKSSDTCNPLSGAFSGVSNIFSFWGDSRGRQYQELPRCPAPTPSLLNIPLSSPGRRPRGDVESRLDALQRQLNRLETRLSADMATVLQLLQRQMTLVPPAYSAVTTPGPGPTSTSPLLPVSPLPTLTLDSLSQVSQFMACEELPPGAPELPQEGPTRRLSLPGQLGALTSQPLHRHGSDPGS
row,Structure (SMILES),"hERG current change (%, negative = inhibition) at 10uM [%]"
1,Cc1cccc(NC(=O)NC2CC3CCC(C2)N3Cc2ccco2)c1 (centres unmarked),-2.61
2,Cc1ccc(CNC(=O)C2CCC(=O)N(C3CCCC3)C2)c(F)c1F (centres unmarked),2.29
3,O=C(COc1ccccc1Cl)NCCCNC(=O)c1ccccn1,15.8
4,Cc1ccc(NC(=O)Cc2nc(CN(C)CC(=O)Nc3ccc(C)cc3)cs2)cc1,-26
5,Cc1cc2ncn(CC(O)COc3cccc(C(=O)O)c3)c2cc1C (centres unmarked),-10.8
6,O=C1/C(=C/c2ccc(F)cc2)SC(=S)N1CCCC(=O)N1CCCCC1CCO (centres unmarked),-35
7,CCCNS(=O)(=O)c1cccc(C(=O)NC2CCCc3ccccc32)c1 (centres unmarked),-31.8
8,Nc1c(C(=O)CSc2ncccn2)c(=O)[nH]c(=O)n1C1CC1,12.3
9,COc1cccc(/C=C/C(=O)N2CC(C)OC(C)C2)c1OC (centres unmarked),11.3
10,CCC(=O)Nc1sc2c(c1C(N)=O)CCN(C(C)=O)C2,10.7
11,COc1cccc([C@H](O)Cn2cc(-c3ccc(CON=C(C)C)cc3)nn2)c1,8.09
12,COc1ccc(S(=O)(=O)N/N=C\c2ccc3c(c2)OCO3)cc1,0.548
13,Cc1ccc(NC(=O)CSCC(=O)N2CCCc3ccccc32)cc1,-26.4
14,CCCc1nnc(NC(=O)CCC(=O)NCc2ccccc2OC)s1,21.4
15,Cc1ccc(SCc2[nH]nc3c2C2(C(=O)Nc4ccc(F)cc42)C(C#N)=C(N)O3)cc1 (centres unmarked),-6.28
16,O=C(CSc1ccccn1)N1CCOCC1,-7.56
17,CCOC(=O)CN1C(=O)S/C(=C\c2ccc3c(c2)OCO3)C1=O,4.47
18,CC(C)(O)C#Cc1ccc(C(=O)NCCC(=O)O)s1,32.6
19,O=C(NCC(O)c1ccccc1)c1ccc(Cl)c(S(=O)(=O)N2CCCC2)c1 (centres unmarked),-0.367
20,CC1(C)CC(=O)C(C(C#Cc2ccccc2)C2=C(O)CC(C)(C)CC2=O)=C(O)C1,6.97
21,Cc1ccc(NC(=O)CSc2nnc(Cc3csc(C)n3)o2)c(C)c1,14.5
22,O=Cc1cn(CCC(=O)O)nc1-c1cccc2ccccc12,13.5
23,CCOC(=O)c1cc2cc(F)ccc2nc1C,2.03

row,Structure (SMILES),"hERG current change (%, negative = inhibition) at 10uM [%]"
1,CC(NC(=O)CCC(=O)c1ccccc1)c1ccc(F)cc1 (centres unmarked),10.3
2,Cc1ccc(N2CC(C(=O)N3CCN(C(=O)c4ccco4)CC3)CC2=O)cc1 (centres unmarked),-71.7
3,Cc1ccccc1NC(=O)CSc1nnc(NC(=O)C2CC2)s1,2.89
4,O=C(NNC(=S)Nc1ccccc1)c1cccs1,17.1
5,O=C(N/N=C1\C2CN3CCN(C2)CC1(c1ccccc1)C3)Nc1ccccc1,-2.88
6,Cc1ccc(OCCn2cc(/C=C(\C#N)C(=O)NCC3CCCO3)c3ccccc32)cc1 (centres unmarked),11.4
7,COc1ccc2cc(/C=N/NC(=O)CSCc3ccc([N+](=O)[O-])cc3)c(Cl)nc2c1,0.136
8,COc1cccc(/C(C)=N/NS(=O)(=O)c2ccc(Cl)cc2)c1,-4.83
9,Cc1cccnc1NC(=O)C1CCN(S(=O)(=O)c2cccs2)CC1,-6.07
10,O=C(c1ccc(C(=O)N2CCOCC2)nc1)N1CCOCC1,18.9
11,N=C1C(c2ccccc2)=C(O)CN1Cc1ccco1,6.39
12,O=[N+]([O-])c1cc([N+](=O)[O-])c2n[nH]c(-c3ccccc3)c2c1,3.26
13,CC(=O)Nc1cc2c(cc1C(C)=O)OCCO2,7.08
14,COc1ccc(NC(=O)Cn2c(=O)sc3ccccc32)c(OC)c1,-1.36
15,C=CC1=C2C=C(C3CC3)N(CC3CC3)C=C2C(=O)C(C)(OC(=O)c2ccco2)C1=O (centres unmarked),-12.1
16,CNc1nc(Nc2ccc(C)c(Cl)c2)nc(N)c1[N+](=O)[O-],9.55
17,C=CCSc1nc2ccccc2n1S(=O)(=O)c1ccc(C)cc1,15.9
18,CN(C(=O)COc1coc(CN2CCN(c3ccccc3)CC2)cc1=O)c1ccccc1,-5.19
19,O=C(O)CCCCCN1C(=O)CCC1=O,8.39
20,Cl.NC(=O)c1[nH]cnc1N,5.73
21,CCS(=O)(=O)Nc1ccc(C(=O)c2ccccc2)cc1,-4.22
22,COc1ccccc1/C=C/C(=O)N1CCc2cc(OC)c(OC)cc2C1C (centres unmarked),-24.4
23,Cc1cccc(NC(=O)c2ccc(F)c(S(=O)(=O)NCc3ccco3)c2)c1,-18.1

row,Structure (SMILES),"hERG current change (%, negative = inhibition) at 10uM [%]"
1,CC(=O)c1ccc(N2CCN(C(=O)c3cc(-c4ccc5c(c4)OCO5)nc4ccccc34)CC2)cc1,2.88
2,COc1cc(C(=O)NCc2nnc(SCC(=O)c3ccc(Cl)cc3)o2)cc(OC)c1OC,-13.4
3,CCOc1ccc(CC(=O)NCC2(N3CCCCC3)CCCCC2)cc1,-17
4,COc1ccccc1C(=O)NNC(=O)c1ccccc1Br,23
5,Cc1ccc(S(=O)(=O)N(C)CC(=O)OCC(=O)c2c(N)n(C)c(=O)n(C)c2=O)cc1,-47.1
6,CC(C)(C)c1ccc(S(=O)(=O)N2CC(C(=O)O)Oc3ccc(Cl)cc32)cc1 (centres unmarked),-3.82
7,Cc1cc(Oc2ccc(=O)n(C)n2)nc(SCCOc2ccccc2)n1,-31.6
8,c1ccc(COCCCn2cc(-c3ccccc3)nn2)cc1,3.86
9,Cc1cc(C(=O)CSc2nnnn2C)c(C)n1Cc1ccco1,27.7
10,CCOC(=O)C1=C(Cc2ccc(F)cc2)C(=O)c2ccccc2C1=O,4.36
11,COc1ccc(C2/C=C\CN(S(=O)(=O)/C=C/c3ccccc3)CC(=O)N2Cc2ccc(F)cc2)cc1 (centres unmarked),-8.33
12,CC(O)CNc1nc2c(c(=O)n(C)c(=O)n2C)n1Cc1cccc(C(F)(F)F)c1 (centres unmarked),-12.9
13,CCOc1ccc(-c2cccc(NC(=O)COc3ccc(Cl)cc3)c2)nn1,3.64
14,Cc1cc(C)c(/C=C(\C#N)C(N)=S)c(C)c1,8.24
15,O=C(c1ccc(-n2cccn2)cc1)N1CCc2c([nH]c3ccccc23)C1c1ccccn1 (centres unmarked),-2.49
16,CC(=O)c1ccc(C)cc1OC(=O)c1cccc(F)c1,13.4
17,COc1cccc(CNc2nnnn2C)c1,14.2
18,CC(=O)Nc1cccc(NC(=O)c2ccc(C(=O)Nc3cccc(NC(C)=O)c3)nc2)c1,25.7
19,COc1ccc(OC)c(N/C(C)=C/C(=O)c2ccc(Br)cc2)c1,-0.328
20,CCCc1cc(C(=O)NC(C)C2CCCO2)cs1 (centres unmarked),7.72
21,Cn1nccc1C(=O)OCC(=O)Nc1ccc(S(N)(=O)=O)cc1,9.48
22,Cc1nc(-c2cccc(S(=O)(=O)N3CCC(C)CC3)c2)cs1,-13.4
23,COC(=O)C1CCN(CC(=O)Nc2ccc(OC)c(Cl)c2)CC1,13.1

row,Structure (SMILES),"hERG current change (%, negative = inhibition) at 10uM [%]"
1,O=C(NCc1ccccc1)N(Cc1cc2cc3c(cc2[nH]c1=O)OCO3)CC1CCCO1 (centres unmarked),12.7
2,CC(C)c1nnc(NC(=O)CCC(=O)N2CCN(C3CCCCC3)CC2)s1,-0.653
3,COc1cccc(-c2ccc(C#N)c(=O)[nH]2)c1,5.06
4,O=C(CC1Sc2ccccc2NC1=O)NCc1ccc(Cl)cc1 (centres unmarked),13.7
5,COc1ccc([C@@H]2[C@@H]3C(=O)N(C(C)(C)C)C(=O)[C@@H]3[C@]3(Cc4ccc(Cl)cc4)C(=O)N(c4cccc(F)c4)C(=O)N23)cc1,11.2
6,COc1ccc(NC(=S)N2CCC(Cc3ccccc3)CC2)cc1OC,-45.3
7,CCOc1ccc(N(CC(=O)NCc2ccc(F)cc2)C(=O)c2ccco2)cc1,-54.6
8,N/C(Cc1nc(-c2ccc(Cl)cc2)cs1)=N/O,10
9,C(=N\N(c1ccccc1)c1ccccc1)/c1ccc2c(c1)OCO2,4.28
10,CC(NC(=O)Nc1ccccc1)c1ccccc1 (centres unmarked),3.06
11,COc1cccc(C2C(C#N)=C(N)Oc3c2oc(CO)cc3=O)c1 (centres unmarked),1.6
12,CC1CCN(CC(=O)Nc2ccc(Br)cc2[N+](=O)[O-])CC1,19.6
13,CC(C)NC(=O)COC(=O)c1ccc(Cl)c(S(=O)(=O)N2CCCC2)c1,-11
14,CN(Cc1nc2ccc(F)cc2[nH]1)Cc1nc(CC2CC2)no1,-12.3
15,Cc1ccc(NC(=O)CNC(C)c2ccccc2)cc1.Cl (centres unmarked),9.68
16,COc1ccc2nc3oc(C(=O)N4CC(C)CC(C)C4)cc3cc2c1 (centres unmarked),-9.5
17,Cc1ncc([N+](=O)[O-])n1CCOC(=O)Nc1ccc([N+](=O)[O-])cc1,-5.42
18,O=C(c1ccco1)N1CCN(C(=O)c2cc(-c3ccc(F)cc3)no2)CC1,-65.1
19,Cc1ccc(CN2CCC(c3nc4ccc(Cl)cc4[nH]3)CC2)cc1,-83
20,C/C(CC(=O)Nc1ccc2c(c1)OCCO2)=N\NC(=O)c1ccc([N+](=O)[O-])cc1Cl,-5.37
